Results reported in PubChem BioAssay (Tox21).
Several values for one entry are separate records, joined by “and”; a condition that tells them apart may be missing. Equal entries are not always repeated. The shares of active, inactive and inconclusive entries below differ from those in the screen. For some of these results: A potency beside an inconclusive call is a rough fit, not a confirmed value. Some compounds were tested as several samples or in several runs, with calls that do not always agree. Activity calls are given as the source filed them. Unless noted, the call rests on the fitted dose curve; in most records, active means well fitted curve in the direction sought with a large enough effect in the repeat runs; inconclusive means weak or mixed curves; inactive means no such curve, though single readings can be large; an effect the other way counts as inactive or inconclusive.

Assays:
[1] = molecular target: Nuclear receptor ROR-gamma (Homo sapiens) (UniProt P51449); experiment: qHTS assay to identify small molecule antagonists of the retinoid-related orphan receptor gamma (ROR-gamma) signaling pathway (AID 1159521; further: potency means the concentration at half of the fitted maximal effect; nearly all actives have a fitted effect of over 50% in size)
Summary of the method: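 Cells were plated, rested 4 h at 37 C, exposed to compounds for 2 h, then given 1 uM final doxycycline hyclate to induce RORγ expression. After 16 h, ONE-Glo luminescence from the ROR response element reporter was measured.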

[2] = qHTS assay to identify small molecule agonists of the AP-1 signaling pathway (AID 1159526; calls by dose curve; further: potency means the concentration at half of the fitted maximal effect; on activation: on the % scale 0 is the no-effect control and ±100 the full control effect); details: ME-180 (cervical carcinoma) AP-1-bla reporter, beta-lactamase FRET ratio, 5 h; activation: at 76.8 µM (top of the series) unless noted
[3] = qHTS assay to identify small molecule agonists of the RXR signaling pathway - cell viability counter screen (AID 1159529); further: nearly all actives have a fitted effect of over 50% in size; further: potency means the concentration at half of the fitted maximal effect
Summary of the method: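 Steps: seed RXR-alpha-UAS-bla HEK 293T cells in assay medium containing 2% charcoal-stripped FBS; incubate 5 hr; add compounds in DMSO; incubate 16 hr at 37 C; after the bla read, add CellTiter-Glo and read luminescence at 30 min.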

[4] = molecular target: Retinoic acid receptor RXR-alpha (Homo sapiens) (UniProt P19793); experiment: qHTS assay to identify small molecule agonists of the RXR signaling pathway (AID 1159527; calls by dose curve; further: nearly all actives have a fitted effect of over 35% in size; further: potency means the concentration at half of the fitted maximal effect; on activation: on the % scale 0 is the no-effect control and ±100 the full control effect); details: HEK293T RXRa-UAS-bla, beta-lactamase ratio, 16 h; activation: at 76.8 µM (top of the series) unless noted
Summary of the method: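 Cells plated at 2,000/well, rested 5 hr at 37 C, pin-dosed with DMSO compound solutions, incubated 16 hr, then loaded with B/G FRET substrate for 2 hr at RT before dual-emission fluorescence reading.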

[5] = qHTS assay to identify small molecule agonists of the constitutive androstane receptor (CAR) signaling pathway - cell viability counter screen (AID 1224836); further: nearly all actives have a fitted effect of over 45% in size; further: potency means the concentration at half of the fitted maximal effect
Summary of the method: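 Cells were seeded and incubated 4 hrs. Compounds were added across 15 concentrations together with PK11195 at 0.75 uM final. Plates were incubated 23 hrs at 37 C. CellTiter-Fluor was added and fluorescence measured.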

[6] = qHTS assay to identify small molecule antagonists of the constitutive androstane receptor (CAR) signaling pathway - cell viability counter screen (AID 1224837); further: potency means the concentration at half of the fitted maximal effect; nearly all actives have a fitted effect of over 45% in size
Summary of the method: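 HepG2 cells stably expressing hCAR and a CYP2B6-2.2kb reporter were plated and pre-incubated 4 hr at 37 C/5% CO2, then given compounds at 15 concentrations plus 50 nM CITCO (final). After 23 hr, viability was read by CellTiter-Fluor fluorescence.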

[7] = qHTS assay to identify small molecule agonists of the AP-1 signaling pathway - cell viability counter screen (AID 1159525; calls by dose curve; further: nearly all actives have a fitted effect of over 55% in size; further: potency means the concentration at half of the fitted maximal effect)
Summary of the method: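 AP-1-bla ME-180 cells in Opti-MEM with 0.5% dialyzed FBS, compound exposure 5 h at 37 C in 15-point titration. Viability read in the same wells as ATP content by CellTiter-Glo luminescence, normalised to tetra-n-octylammonium bromide and DMSO controls.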

[8] = qHTS assay to identify small molecule antagonists of the retinoid acid receptor (RAR) signaling pathway - cell viability counter screen (AID 1159551); further: potency means the concentration at half of the fitted maximal effect; nearly all actives have a fitted effect of over 35% in size
Summary of the method: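 C3RL4 cells were seeded overnight at 37 C, then treated with compounds plus 1 uM (final) retinol for 6 h at 37 C. Viability was read as ATP by CellTiter-Glo luminescence after 30 min at room temperature.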

[9] = qHTS assay to identify small molecule antagonists of the retinoic acid receptor (RAR) signaling pathway (AID 1159552; further: potency means the concentration at half of the fitted maximal effect; nearly all actives have a fitted effect of over 50% in size)
Summary of the method: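 Retinol at 1 uM final stimulated RARE-luciferase expression in C3RL4 cells exposed to test compounds for 6 hr at 37 C. Reduced luminescence, read 30 min after detection reagent, indicated pathway antagonism.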

[10] = qHTS assay to identify small molecule agonists of the retinoic acid receptor (RAR) signaling pathway (AID 1159553); details: C3RL4 RARE luciferase reporter, agonist, 6 h; activation: at 73.3 µM (top of the series) unless noted; further: potency means the concentration at half of the fitted maximal effect; on activation: on the % scale 0 is the no-effect control and ±100 the full control effect
Summary of the method: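 C3RL4 cells carrying a RARE luciferase reporter were plated overnight at 37 C, then exposed to compounds in DMSO for 6 hr at 37 C and 5% CO2. Luminescence was read 30 min after luciferase reagent addition at room temperature.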

[11] = qHTS assay to identify small molecule antagonists of the estrogen related receptor (ERR) signaling pathway from Tox21 library - cell viability counter screen (AID 1224834); further: potency means the concentration at half of the fitted maximal effect; nearly all actives have a fitted effect of over 30% in size
Summary of the method: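 ERR reporter cells were plated 6 h before compound addition, then exposed to test compounds in DMSO for 17.5 h at 37 C. Viability was read as CellTiter-Fluor fluorescence after a 30-minute incubation at 37 C.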

[12] = molecular target: Luciferin 4-monooxygenase (Photinus pyralis) (UniProt P08659); experiment: qHTS assay to identify small molecule inhibitors of firefly luciferase (AID 1224835); further: nearly all actives have a fitted effect of over 25% in size; further: potency means the concentration at half of the fitted maximal effect
Summary of the method: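 Biochemical qHTS: compounds run as interplate titrations against purified firefly enzyme, with D-luciferin and ATP each at its KM concentration. Light output recorded by CCD imaging.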

[13] = qHTS assay to identify small molecule antagonists of the estrogen related receptor (ERR) signaling pathway (AID 1224819; further: potency means the concentration at half of the fitted maximal effect; nearly all actives have a fitted effect of over 50% in size)
Summary of the method: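 ERR reporter cells were plated at 2,000 cells/well and left 6 h at 37 C/5% CO2 before pin-tool transfer of compounds in DMSO. After 18 h at 37 C, One-Glo was added and luminescence was read 30 min later at room temperature.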

[14] = tested on: estrogen-related receptor alpha (ERRalpha) with PGC-1alpha coactivator, human; experiment: qHTS assay to identify small molecule antagonists of the estrogen related receptor signaling pathway with the pleiotropic PPARgamma coactivator (PGC) (AID 1224821; calls by dose curve)
Summary of the method: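 Quantitative HTS for antagonism: PGC/ERR cells received compounds after 6 h attachment and were incubated 18 h at 37 C, with luminescence (One-Glo) as the endpoint.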

[15] = qHTS assay to identify small molecule agonists of the estrogen related receptor signaling pathway with the pleiotropic PPARgamma coactivator (PGC) (AID 1224823); further: on the % scale 0 is the no-effect control and ±100 the full control effect
Summary of the method: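 Cell-based luciferase assay in the NTP-supplied PGC/ERR line, 2,000 cells/well; 18 h compound exposure at 37 C, luminescence after One-Glo.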
Tags describe the fitted curve by direction and shape or compound fluorescence and quenching.

UniProt P19793, sequence (P19793 whole entry, looked up): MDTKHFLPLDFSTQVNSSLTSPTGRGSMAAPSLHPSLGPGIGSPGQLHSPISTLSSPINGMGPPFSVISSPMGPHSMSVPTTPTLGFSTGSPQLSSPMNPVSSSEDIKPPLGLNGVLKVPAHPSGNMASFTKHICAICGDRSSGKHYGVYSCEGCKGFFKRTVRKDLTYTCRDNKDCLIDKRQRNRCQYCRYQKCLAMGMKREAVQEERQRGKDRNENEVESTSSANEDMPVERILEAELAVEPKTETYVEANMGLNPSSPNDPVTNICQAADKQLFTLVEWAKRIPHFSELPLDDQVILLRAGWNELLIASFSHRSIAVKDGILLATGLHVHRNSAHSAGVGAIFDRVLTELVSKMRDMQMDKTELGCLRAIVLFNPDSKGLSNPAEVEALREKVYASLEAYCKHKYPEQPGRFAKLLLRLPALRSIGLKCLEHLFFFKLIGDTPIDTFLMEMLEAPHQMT
UniProt P08659, sequence (P08659 whole entry, looked up): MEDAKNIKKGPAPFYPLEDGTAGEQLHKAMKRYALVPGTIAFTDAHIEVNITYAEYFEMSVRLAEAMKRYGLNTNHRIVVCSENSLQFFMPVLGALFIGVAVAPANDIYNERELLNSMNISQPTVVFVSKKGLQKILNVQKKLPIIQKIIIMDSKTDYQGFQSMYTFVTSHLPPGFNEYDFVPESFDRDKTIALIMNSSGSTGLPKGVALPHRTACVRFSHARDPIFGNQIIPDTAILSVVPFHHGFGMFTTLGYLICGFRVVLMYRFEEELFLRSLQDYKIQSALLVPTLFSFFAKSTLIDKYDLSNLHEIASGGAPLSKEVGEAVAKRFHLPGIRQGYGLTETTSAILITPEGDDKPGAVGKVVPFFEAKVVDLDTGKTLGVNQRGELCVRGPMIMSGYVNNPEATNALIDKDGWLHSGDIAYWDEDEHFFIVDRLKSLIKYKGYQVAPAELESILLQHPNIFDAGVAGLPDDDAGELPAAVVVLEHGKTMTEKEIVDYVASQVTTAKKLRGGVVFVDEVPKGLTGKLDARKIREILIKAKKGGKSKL

C[C@]12CC[C@@H]3c4ccc(OC(=O)N(CCCl)CCCl)cc4CC[C@H]3[C@@H]1CC[C@@H]2O
Potency [1]: inconclusive: 29.8 µM [inhibitor, partial curve, poor fit] | Potency [2]: inconclusive: 21.3 µM | Potency [3]: inactive

CN1CCc2cc(Cl)c(O)cc2[C@H]2c3ccccc3CC[C@@H]21
Potency [1]: inconclusive: 29.8 µM [inhibitor] | activation [4]: inconclusive: -21.2% [at 35.3 µM] | Potency [3]: inconclusive: 19 µM [cytotoxic, partial curve] | Potency [5]: inconclusive: 21.1 µM [cytotoxic, partial curve] | Potency [6]: inconclusive: 29.8 µM [cytotoxic, partial curve, poor fit]

[Cl][Hg][c]1ccccc1
Potency [7]: active: 1.38 µM | Potency [2]: inconclusive: 1.55 µM [falling, full curve] | Potency [4]: inconclusive: 0.616 µM [rising, partial curve] | Potency [8]: active: 17.2 µM | Potency [9]: active: 1.09 µM | Potency [10]: inconclusive: 433 nM [inhibitor, full curve] | Potency [6]: active: 4.33 µM

CCCCCCCCCc1ccc(O)cc1
Potency [7]: inconclusive: 55.5 µM [cytotoxic, single point] and inconclusive: 49 µM [cytotoxic, single point] | Potency [2]: inconclusive: 22.1 µM [falling, partial curve] and inconclusive: 38.9 µM [falling, partial curve] | Potency [4]: inconclusive: 34.7 µM [inhibitor, partial curve] | activation [4]: inconclusive: -6.37% | Potency [3]: active: 55.5 µM and inconclusive: 38.9 µM [cytotoxic, partial curve] | Potency [10]: active: 19.5 µM and inconclusive: 24.3 µM [activator] | Potency [11]: inconclusive: 68.6 µM [cytotoxic, single point] | Potency [12]: inconclusive: 79.6 µM [inhibitor, partial curve, poor fit] | Potency [5]: inconclusive: 55 µM [cytotoxic, partial curve]

CCCCCC[n+]1ccccc1
Potency [7]: inconclusive: 22 µM [cytotoxic, partial curve, poor fit] and inconclusive: 24.6 µM [cytotoxic, single point] | Potency [2]: inconclusive: 55.5 µM | Potency [3]: active: 55.5 µM and active: 49.3 µM | Potency [5]: inconclusive: 21.9 µM [cytotoxic, partial curve] and inconclusive: 27.3 µM [cytotoxic, full curve] and inconclusive: 27.3 µM [cytotoxic] | Potency [6]: inconclusive: 43.7 µM [cytotoxic, partial curve] and inconclusive: 48.9 µM [cytotoxic, partial curve] and inconclusive: 43.3 µM [cytotoxic, partial curve, poor fit]

O=C(O)COc1nc(Cl)c(Cl)cc1Cl
Potency [1]: inconclusive: 70.2 µM [inhibitor, partial curve, poor fit] | Potency [4]: inconclusive: 63.1 µM | Potency [3]: inconclusive: 50.1 µM [cytotoxic, partial curve, poor fit]

CC(C)Oc1cccc(NC(=O)c2ccccc2C(F)(F)F)c1
Potency [1]: inconclusive: 19.3 µM [inhibitor, full curve, poor fit] | Potency [4]: inconclusive: 27.5 µM [rising, partial curve] | Potency [3]: inconclusive: 15.5 µM [cytotoxic, partial curve, poor fit] | Potency [9]: inconclusive: 54.5 µM [inhibitor, partial curve, poor fit] | Potency [13]: inconclusive: 30.6 µM [inhibitor] | Potency [14]: inconclusive: 10.9 µM [inhibitor, partial curve, poor fit] | Potency [15]: inactive | Potency [11]: inconclusive: 0.0969 µM [rising, partial curve, poor fit]

O=P(O)(O)CN(CP(=O)(O)O)CP(=O)(O)O
Potency [7]: inactive | Potency [4]: inactive | Potency [3]: inactive | Potency [12]: inactive

O=C(N[C@H]1N=C(c2ccccc2F)c2cccc3c2N(CC3)C1=O)c1cc2ccccc2[nH]1
Potency [7]: inactive | Potency [2]: inconclusive: 3.01 µM | Potency [11]: inconclusive: 33.5 µM [cytotoxic, single point] | Potency [5]: inactive

CC1(C)C(/C=C(\Cl)C(F)(F)F)C1C(=O)OC(C#N)c1cccc(Oc2ccccc2)c1 (stereo unspecified)
Potency [1]: inconclusive: 69.7 µM [inhibitor, single point] | activation [4]: inconclusive: -23.4% | Potency [3]: inactive

C=CCc1ccc(OC(=O)Cc2ccccc2)c(OC)c1
Potency [7]: inactive | Potency [2]: inactive | activation [4]: inconclusive: 0.914% | Potency [10]: inactive | Potency [12]: active: 25.2 µM

CN(C)c1ccc(C(=O)c2ccc(N(C)C)cc2)cc1
Potency [7]: inactive | activation [2]: inconclusive: 12% | activation [4]: inconclusive: -12.6% | Potency [10]: active: 1.21 µM and active: 1.22 µM | Potency [6]: inconclusive: 48.6 µM [cytotoxic, partial curve]
